The supplement of paper PMC11417369
± gives the standard deviation of the averaged measurements. The list shows a part of the results.

tested on: PfAP2-I AP2 domain 3 (GST-tagged); experiment: gcPBM binding intensity (ln(normalized median fluorescence intensity)); higher = stronger DNA binding
Outline: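 GST-tagged P. falciparum DNA-binding domains, expressed in E. coli (about 25 μg on average), were applied for 1 h to an Agilent 4 × 180k array of primer-extended double-stranded 36-bp intergenic genomic probes plus negative controls. The binding buffer was 1× PBS with 1% milk, 0.2 mg/ml BSA, 0.5% salmon testes DNA and 0.03% Triton X-100. Bound protein was detected with Alexa488 anti-GST antibody and scanned at 488 nm. Binding intensity is the highest Masliner-normalised natural-log median intensity across replicate spots of either probe orientation.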

Sequence	gcPBM binding intensity (ln)
TAATATCAAACCTATAGTACATAAGGTATAAAAAAG [XGTACX_site3533]	7.83 ± 0.57
GTTAAGTGTATATATACACACATATGTAATACATGA [CACACA_site3048]	8.17 ± 0.41
TAAAAATATATGTATACACACATATATATATATATA [CACACA_site3951]	9.32 ± 0.51
AAAAAAAGTGACTCCTTACACACTTTACATAATTTA [CACACA_site820]	7.59 ± 0.51
AATATTGAAATAACGCGTACAAAAAAAAGTTATATT [XGTACX_site6559]	8.12 ± 0.56
TAATTAAAATTATATATTAGAAAAAACATATAAAAC [CACACA_negctrl_site190]	7.79 ± 0.64
ATATGTAGAATAAAAAAAAAAAAAAAAAAAAAAAAT [CACACA_negctrl_site621]	7.61 ± 0.4
ATGTTATATTATAAAAGTACATTTTATTTTTATTTA [XGTACX_site4365]	7.87 ± 0.44
TTAATTTATAAAAACACACACAGGTAAAAAGGTGCA [CACACA_site1177]	8.13 ± 0.59
ATTTCCTTTTTCTGTTGTACTCATAAAATAATATGT [XGTACX_site7234]	8.32 ± 0.42
ATTTATTTATTTATATGTACATATATATATATATAT [XGTACX_site339]	9.36 ± 0.42
GATGGAATCTAATTTACATGCAGTGATATAATAAAT [TGCATGCA_site1031]	7.98 ± 0.71
TAATAATAACCGTTATGTACACAATTTTGTGAACAT [XGTACX_site8053]	7.92 ± 0.18
TACAGACAGAAACACACACACACGCATAAAAAAAAA [CACACA_site1514]	8.33 ± 0.52
TATACAATATTTATAACACACATATTTATATAAACT [CACACA_site6932]	7.79 ± 0.47
ACTAAACAATATGTATGTACATATTTTACATATAAT [XGTACX_site3318]	7.89 ± 0.4
AGAACATTTTCTCAGTGTACTTATATATTTGACATA [XGTACX_site6541]	7.7 ± 0.4
ACTTCCTATATTTATGCATGCATTTTATTAAAAAAT [TGCATGCA_site747]	8.73 ± 0.67
ATATATCATGAACCTTGTACGTATATATATATATAT [XGTACX_site239]	9.52 ± 0.64

Sequence	gcPBM binding intensity (ln)
ATTAATGATTTTTGTTGTACATTATTAATTTACATT [XGTACX_site544]	7.83 ± 0.46
ATGCGTATACTAAGAACACACAAGTTACTTGGTGTT [CACACA_site1625]	7.49 ± 0.76
CATACATACATACATACACACATACATATGTATTTA [CACACA_site5384]	8.9 ± 0.47
TATTTTATATTTCATTTGTTATTTTTCTTGGTTCTA [CACACA_negctrl_site33]	7.6 ± 0.73
CAACACTTTCAAAAATGTACGTACAAATGTATTTTA [XGTACX_site6713]	7.76 ± 0.38
AGTTTCCATATGAGGTGTACATATATAATTTATTAT [XGTACX_site2369]	8.02 ± 0.5
ACAAAATAAAGACACACACACAAACACAAAAAAATA [CACACA_site7568]	7.87 ± 0.21
CAAAAATAACGAGTCAAACACACATATATATATATA [CACACA_site2038]	9.4 ± 0.35
AAAGGGATAACACCAAAAAAAATAAAAATAAAAATA [GTGCAC_negctrl_site680]	7.74 ± 0.61
TCAAGAATTTTAAAGAGTACATAAAACAATAATATA [XGTACX_site3923]	7.63 ± 0.47
TTGCAAATATATGGTTGTACTCAAAAAAAAAAAAAA [XGTACX_site6975]	8.12 ± 0.52
TATGCACCCAGACACACACACACAACTAAAAAATAA [CACACA_site2567]	8.58 ± 0.071
TTTGTAGATTTTGTAACACACACATATATATACATA [CACACA_site8757]	7.71 ± 0.54
TCTTTCTATTTATAATGTACTCAAAATTATTCTATA [XGTACX_site4867]	7.75 ± 0.68
AAAATATAATATATTGCACACAAAAAGTGAATTATT [CACACA_site8489]	10 ± 0.62
TACCATTATTTTAAGTGTACATACTAATTTATATAT [XGTACX_site6548]	7.96 ± 0.4
TTTTACCACTAAAAATGTACAAAAAAAAAAAAAAAA [XGTACX_site4226]	8.01 ± 0.77
CCTTGCATTTATTATACACACACAAAAAAATATATA [CACACA_site7964]	8.73 ± 0.43
AAATTGTGTGAAATATATTAATATTATTATTATTAT [TGCATGCA_negctrl_site189]	7.74 ± 0.47

Sequence	gcPBM binding intensity (ln)
AGATAGCTATTAAAAAGTACAAAAAAATATATATAT [XGTACX_site6289]	8.87 ± 0.057
TATTTTATATAAAGGTGTACTTATACAAAAATATAT [XGTACX_site7435]	8.14 ± 0.28
TATACAGGAATATTTTTACACACTAATAATTATAAA [CACACA_site8477]	7.7 ± 0.38
TATTTACAACAAATTTAATTATTTTTAACTTATAAA [GTGCAC_negctrl_site259]	7.18 ± 0.55
ATAAATACAGATATTACACACTTCTTATTCTAAGAA [CACACA_site5640]	7.67 ± 0.47
TTTTTTTTTTTTGAGTGTACAAGATTGTTGTTCCAA [XGTACX_site6120]	8.21 ± 0.85
AAATATTTGTGTGGTTGTACTATAATGATAAAAATA [XGTACX_site7703]	8.14 ± 0.42
TTTTTTCAAATTATTCGATATGTAAAAAAATAAAAT [GTGCAC_negctrl_site241]	7.58 ± 0.5
GGTTTGAATTTTTAAGTGCATATAACATAAATGAAA	9.86 ± 0.23
CATACATACAAACACACACACATATATATATATATA [CACACA_site43]	9.21 ± 0.49
TTATATTATATATATATTATATATATGTATGCATAA [TGCATGCA_negctrl_site481]	7.75 ± 0.34
ATCCTCTTTTTAAGTTGTACAGGGTCGAAAAAAAAA [XGTACX_site6852]	8.12 ± 0.32
GATTATTATTATAAGGGTACAAATATTTAATAAAAA [XGTACX_site7144]	7.94 ± 0.61
AAAAAAAAATAAAAAAGTACATTCATTTTATAAGAT [XGTACX_site3507]	7.66 ± 0.45
CATGTCAAAATTATACGTACATATATAAGTTCCATT [XGTACX_site6331]	7.79 ± 0.46
ATTATATATATATATATATATATATATATATTATAT [CACACA_negctrl_site234]	8.37 ± 0.092
AATGTAATATAAATATGTACATATAAACTATATATA [XGTACX_site6871]	7.68 ± 0.41
GTTTTAAAACAAATATGTACACATAATATAGGAAAG [XGTACX_site1803]	8.29 ± 0.5
